In PubChem BioAssay AID1671194 (National Center for Advancing Translational Sciences (NCATS), 2021):
Screen size: about 140,000 compounds; about 240 (0.17%) were called active. The shares of active, inactive and inconclusive entries below differ from those in the screen. Calls come from the whole dose curve; as a rule, active = well fitted inhibition curve with a large enough effect; inconclusive = small, poorly fitted or top-dose-only effect; inactive = no such curve, though single readings can be large or run the other way. Where the call is inconclusive, the potency comes from a doubtful curve fit. Where a structure was tested more than once in an assay, its records may differ in their call.

Assay: Primary qHTS assay for inhibitors of alpha-synuclein gene (SNCA) expression; note: nearly all actives have a fitted effect of over 45% in size;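 for activity change, negative = inhibition: plate controls were DMSO cells for no effect and cell-free wells for full effect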
Conditions: HEK-293 SNCA-luciferase knock-in, luminescence, 24 h; activity change, negative = inhibition: at 57.2 µM (top of the series) unless noted
Potency is the fitted concentration of half-maximal effect; tags give direction and shape of the fitted curve.

SMILES | Potency | activity change, negative = inhibition
Cc1cc(C)n2nc(C(=O)N3CCCC4(CNC(=O)O4)C3)cc2n1 (centres undefined) | inconclusive: 3.98 µM [inhibitor, single point] | –
COc1cc(NC(=O)c2cc(-c3ccccc3O)no2)cc(OC)c1OC | inconclusive: 2.82 µM [inhibitor, single point] | –
CC(C)N1C(=O)C2(CCCCC2)C1C(=O)NCCCN1CCCc2ccccc21 (centres undefined) | – | inactive: 6.67%
c1cc2c(cc1-c1noc(-c3nc(-c4ccc5c(c4)OCO5)no3)n1)OCO2 | – | inactive: -15.2%
O=C(NC1CCCCC1)c1ccc(CSc2nc3cccnc3n2Cc2ccccc2F)cc1 | inconclusive: 39.8 µM [inhibitor, single point] | –
Cc1cccc(NC(=O)Cn2c(C(F)(F)F)nc3ccccc32)c1C | inconclusive: 1.26 µM [inhibitor, full curve] | –
CC(C)NC(=O)NC[C@H]1O[C@@H](CC(=O)N2CCN(c3ccc(F)cc3)CC2)[C@H](O)[C@@H]1O | inconclusive: 5.62 µM [inhibitor, single point] | –
CC1CCN(S(=O)(=O)c2cc(C(=O)Nc3ccc(Br)cc3F)n(C)c2)CC1 | inconclusive: 39.8 µM [inhibitor, single point] | –
O=C(NCc1cc(F)cc(F)c1)C1CCN(C(=O)c2ncn3c2COC(c2ccc(F)cc2)C3)CC1 (centres undefined) | inconclusive: 2.82 µM [inhibitor, single point] | –
COc1ccc(-c2nn(-c3ccccc3C)c(OC(C)=O)c2-c2ccc(NC(C)=O)cc2)cc1OC | – | inactive: -20.7%
Cc1sc2c(c1C)c(=O)n(-c1ccc(Cl)cc1)c(=O)n2Cc1c(F)cccc1Cl | inconclusive: 39.8 µM [inhibitor, single point] | –
CCOC(=O)c1c(S(=O)(=O)N2CCC(C(=O)N3CCN(c4cc(C)ccc4C)CC3)CC2)c(C)n(C)c1C | inconclusive: 39.8 µM [inhibitor, single point] | –
O=C(NCCc1csc(-c2cccnc2)n1)c1ccc(F)c(F)c1 | inconclusive: 6.31 µM [inhibitor, single point] | –
CCOCCOC1CCN(C(=O)CCc2ccccc2)CC1 | inconclusive: 44.7 µM [inhibitor, single point] | –
CC(=O)N1CCc2cc(Br)cc(S(=O)(=O)N3CCN(c4cccc(C)c4)C(C)C3)c21 (centres undefined) | inconclusive: 2 µM [inhibitor, full curve] | –
O=C1N(c2ccccc2)c2ccccc2C12CCN(Cc1ccc(C(F)(F)F)cc1)C2 (centres undefined) | – | inactive: -9.35%
Cc1ccc(Cc2nc3ccccc3nc2SCC(=O)N2CCCCC2C)cc1 (centres undefined) | inconclusive: 20 µM [inhibitor, partial curve, poor fit] | –
CCCc1cc(C(=O)N2CCC3(CC2)CN(C(C)CCC)C(=O)O3)n[nH]1 (centres undefined) | – | inactive: -17.8%
CCC1Oc2ccc(NC(=O)Cc3ccccc3)cc2CN(Cc2cccc(OC)c2)C1=O (centres undefined) | inconclusive: 6.31 µM [inhibitor, full curve] | –
c1cncc(COc2cc3c(cn2)NCCN(Cc2ccc4[nH]ccc4c2)C3)c1 | – | inactive: 3.65% [at 87.6 µM]
CN1c2cc(C(=O)Nc3ccccc3)ccc2C(=O)N2CCCCC21 (centres undefined) | – | inactive: 64.7%
COc1ccc(CCC(=O)N2CCn3nnc(CCC(=O)N4CCCC4)c3C2)cc1 | – | inactive: -4.04%

SMILES | Potency | activity change, negative = inhibition
O=C(c1ccc(C(F)(F)F)cc1)N1CCN(C(=O)c2nc3cccnc3n(C3CCCC3)c2=O)CC1 | – | inactive: 5.32%
COc1cccc(NC(=O)Cn2c(N3CCN(c4ccccc4)CC3)nc(C)cc2=O)c1 | – | inactive: 4.73%
CCOC(=O)C1=C(CN(CC)Cc2ccccc2)NC(=O)NC1c1ccc(OC(C)C)cc1 (centres undefined) | inconclusive: 22.4 µM [inhibitor, partial curve, poor fit] | –
CC(C)CCNC(=O)c1cnc2n1CCN(Cc1cccc(OC(F)(F)F)c1)CC2 | inconclusive: 56.2 µM [inhibitor, single point] | –
O=C(CCc1ccccc1)Nc1ccc(-c2nnc3n2CCCC3)cc1 | inconclusive: 8.91 µM [inhibitor, partial curve, poor fit] | –
COc1ccc(S(=O)(=O)N(CC(=O)Nc2cccc(C)c2)c2ccc(C)cc2)cc1OC | inconclusive: 7.08 µM [inhibitor, single point] | –
CCOc1ccc(Nc2nc(C)c(NC(=O)c3cccc(OC)c3)c(Nc3ccc(OCC)cc3)n2)cc1 | inconclusive: 31.6 µM [inhibitor, single point] | –
O=C1NC2(CN(Cc3cccc4ccccc34)C2)Oc2ccccc21 | – | inactive: 18.6% [at 87.6 µM]
COc1ccc(NC(=O)c2c(NCc3cccc(F)c3)sc3c2CCCC3)c(OC)c1 | inconclusive: 22.4 µM [inhibitor, partial curve, poor fit] | –
O=C(Cc1ccccc1Cl)NC1CCN(c2cc(-c3cccs3)[nH]n2)C1 (centres undefined) | inconclusive: 22.4 µM [inhibitor, single point] | –
CCn1c2c(c(=O)n1Cc1ccccc1)CCN(Cc1nccs1)C2 | inconclusive: 8.91 µM [inhibitor, full curve, poor fit] | –
COC(=O)C1=C(c2ccccc2)c2ccccc2S(=O)(=O)N1CC(=O)Nc1ccc(OC)cc1OC | inconclusive: 0.447 µM [inhibitor, full curve, poor fit] | –
O=[S+]([O-])(c1cccc(C(F)(F)F)c1)N1CCN(c2ccnc3ccnn23)CC1 | – | inactive: 12.5%
CCOC(=O)c1ccc(N2C(=O)c3n[nH]c(-c4ccco4)c3C2c2ccc(F)cc2)cc1 (centres undefined) | inconclusive: 2 µM [inhibitor, full curve, poor fit] | –
CC(C)OCc1cc(CN2CCN(c3ccccc3)CC2)c(O)c2ncccc12 | inconclusive: 1 µM [inhibitor, partial curve, poor fit] | –
Cc1cc(C)n(CC(=O)N2CC[C@@H]3CN(S(C)(=O)=O)[C@@H]3C2)n1 | inconclusive: 22.4 µM [inhibitor, single point] | –
COc1ccc(Nc2ccnc(N3CCCC(C(=O)NCc4ccccc4)C3)n2)cc1 (centres undefined) | inconclusive: 39.8 µM [inhibitor, single point] | –
Cc1ccccc1-c1nc2cnccn2c1NCCC(=O)N1CCC(C)CC1 | inconclusive: 1.58 µM [inhibitor, full curve, poor fit] | –
CCCN1C(=O)CCc2cc(NC(=O)c3ccc(C)cc3)ccc21 | – | inactive: 11.1%
CC(C)(Oc1nn(Cc2cccc(Cl)c2)c2ccccc12)C(=O)NCc1ccncc1 | inconclusive: 12.6 µM [inhibitor, partial curve, poor fit] | –
CN(Cc1cccnc1)c1nc2c(c(=O)[nH]1)CCN(Cc1ccc(Cl)c(F)c1)CC2 | inconclusive: 10 µM [inhibitor, partial curve, poor fit] | –
N#Cc1ccccc1S(=O)(=O)N[C@H]1CO[C@H]2[C@@H]1OC[C@H]2OC(=O)Nc1ccc(Oc2ccccc2)cc1 | – | inactive: -24.7%

SMILES | Potency | activity change, negative = inhibition
Cc1ccc(C(=O)N2CC(CO)C3(CCNCC3)C2)c(C)c1 (centres undefined) | inconclusive: 35.5 µM [inhibitor, single point] | –
CN(C)c1ccc(CN2CCNc3cc(Nc4cccnc4)ncc3C2)cc1 | inconclusive: 2.82 µM [inhibitor, full curve, poor fit] | –
Cc1cc(C)cc(-c2ccc(CN3CCCC(NC(=O)C4CCCC4)C3)cc2)c1 (centres undefined) | – | inactive: -28.4%
O=C(O)c1cccnc1 | active: 4.29 µM | –
O=S(=O)(NCc1ccc(Cl)cc1)c1ccc(N2CCCCS2(=O)=O)cc1 | inconclusive: 25.1 µM [inhibitor, single point] | –
Nc1c(C(=O)NCc2ccccc2)nnn1Cc1cccc(Br)c1 | inconclusive: 7.94 µM [inhibitor, single point] | –
O=C(Nc1ccccc1)N1CCCC(C(=O)N2CCCC(c3nc4ccncc4[nH]3)C2)C1 (centres undefined) | inconclusive: 1.58 µM [inhibitor, partial curve, poor fit] | –
O=C1CC2(CCN(CC3CC3)CC2)Oc2ccccc21 | inconclusive: 17.8 µM [inhibitor, partial curve, poor fit] | –
CCOC(=O)c1cc(-c2ccc(F)cc2)n(CCC(=O)NC2CCCCC2)c1C | inconclusive: 31.6 µM [inhibitor, single point] | –
O=C(C1CCCCCC1)N1CCC(n2cc(C3CCCCC3)nn2)CC1 | – | inactive: 4.27%
Cc1ccc(C)c(NC(=O)CCCN2C(=O)C(c3ccccc3)Oc3cccnc32)c1 (centres undefined) | inconclusive: 5.01 µM [inhibitor, partial curve] | –
CCOc1ccccc1N1CCN(C(=O)c2ccc3c(c2)N(C)C2CCCCN2C3=O)CC1 (centres undefined) | inconclusive: 39.8 µM [inhibitor, single point] | –
CN(CCCN1CCOCC1)Cc1nc(-c2ccc(Cl)cc2)no1 | inconclusive: 39.8 µM [inhibitor, single point] | –
Cc1ccc(C(=O)N2CCC3(CC2)CC(N2CCN(c4ccccc4)CC2)CCO3)cn1 (centres undefined) | inconclusive: 7.08 µM [inhibitor, single point] | –
COC(=O)[C@@H]1Cc2c([nH]c3ccccc23)[C@H]2C[C@@H](NCCO)C[C@@H](c3cccc(OC)c3)N21 | – | inactive: 4.83%
CC(C)CCNC(=O)N1CCC2(CC1)C(=O)N(C)c1ccccc12 | inconclusive: 0.708 µM [inhibitor, partial curve, poor fit] | –
C=C1C(=O)O[C@H]2[C@@H]1CCC(C)=CCC[C@@]1(C)O[C@@H]21 | inconclusive: 27.1 µM [inhibitor, partial curve, poor fit] | –
CS(=O)(=O)N1CCc2cc(C(=O)Nc3cccc(F)c3)ccc21 | – | inactive: 166%
c1ccc(CCCCn2ccnc2-c2cc3n(n2)CCCNC3)cc1 | – | inactive: 17.4%
O=C(Nc1ccc(Oc2ccccc2)cc1)O[C@@H]1CO[C@H]2[C@@H]1OC[C@@H]2NS(=O)(=O)c1ccc(Cl)cc1 | inconclusive: 28.2 µM [inhibitor, single point] | –
